PubChem BioAssay AID1963576 (National Center for Advancing Translational Sciences (NCATS), 2024)
The whole screen tested about 46,000 compounds, of which about 60 (0.1%) were called active. About 3% were inconclusive and are not listed. Calls follow the shape of the dose curve; as a rule, active = well fitted inhibition curve with a large enough effect; inconclusive = small, poorly fitted or top-dose-only effect; inactive = no such curve, though single readings can be large or run the other way. The list shows a part of the results.

Experiment: Primary qHTS assay for Inhibitors of ovarian cancer metastasis using an organotypic tumor microenvironment (TME) model. Also: nearly all actives have a fitted effect of over 65% in size.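 As to activity change, negative = inhibition: plate controls were DMSO wells for no effect and tomatine positive control wells for full effect.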
Conditions: SKOV3ip1-GFP adhesion/invasion on 3D omental model, fluorescence; series mostly up to 45.8 µM; activity change, negative = inhibition: at the top concentration
In short: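 Adhesion/invasion was scored as fixed GFP-labeled SKOV3ip1 cell counts (488/509 nm), normalized to DMSO and tomatine controls. Cancer cells in serum-free medium, with four compound doses (0.36-46 umol/L), sat 2 hr at RT then 16 hr at 37 C on a 48 hr fibroblast/mesothelial/ECM culture.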

outcome, inactive:
COc1ccc(NC(=O)CN(C)S(=O)(=O)c2ccc(C(=O)N3CCOCC3)s2)cc1, CCc1nn2c(-c3ccco3)ccnc2c1-c1ccccc1, CCC1CN(C(=O)N2CCC(C(=O)NCc3cc(OC)ccc3OC)CC2)c2ccccc2O1 (centres undefined), CC1=C(c2ccc(C)c(C)c2)S(=O)(=O)N=C1N1CCN(c2cccc(C)c2)C(C)C1 (centres undefined), CCOc1ccc(NC(=O)CC2Nc3cccc4cccc(c34)NC2=O)cc1 (centres undefined), Cc1c(C(=O)N2CCC(C)CC2)c(S(=O)(=O)Nc2cccc(C#N)c2)c(C)n1C, CCOC(=O)c1c(C)[nH]c(C)c1S(=O)(=O)N(C)CC(=O)Nc1cccc(Cl)c1C, Cc1cc(C)cc(NS(=O)(=O)c2ccc(-c3cc(C)no3)s2)c1, COc1ccc(-c2nsc(NC(=O)COc3ccccc3OC)n2)cc1, Cc1ccc(C(=O)COC(=O)CCCC(=O)Nc2cc(C(F)(F)F)ccc2Cl)cc1C, Cc1c(Cl)cccc1NC(=O)CSc1nc(=O)n(Cc2ccncc2)c2c1CCC2, Cn1c(=O)n(Cc2ccccc2Cl)c(=O)c2c1nc1n2CCN1c1ccccc1, Cc1cc(Nc2ccccc2F)n2nc(Cc3ccc(Cl)cc3)nc2n1, COc1cc2c(cc1OC)n(CC(=O)Nc1ccc(C)cc1C)c(=O)n1nc(-c3ccccc3)nc21, CCn1ccc2cc(S(=O)(=O)N3CCCN(C(=O)Nc4ccc(C)cc4Cl)CC3)ccc21, COC(=O)c1ccc(C2c3c(-c4ccc(Br)cc4)n[nH]c3C(=O)N2c2ccc(Cl)cc2)cc1 (centres undefined)

Activity change, negative = inhibition, inactive:
Nc1c(C(=O)NCc2ccc3c(c2)OCO3)nnn1CC(=O)Nc1ccc(Br)cc1 0.919%, Cc1cccc(C)c1OCC(=O)N1CCC(c2nc3ccccc3o2)CC1 -1.22%, Cc1cc(NC(=O)C2CCC(CNS(=O)(=O)c3ccc(Br)s3)CC2)ccc1Br (centres undefined) -2.73%, N=c1nc(N2CCCCC2)cc(N)n1O 3.08%, Cc1cccc(N2CCN(C(=O)C3CCN(Cc4nc(-c5ccc(Cl)cc5)oc4C)CC3)CC2)c1C 0.716%, COc1cc(OC)c(NC(=O)c2cc3c(s2)-c2ccc(Cl)cc2SC3)cc1Cl -10.3%, Cn1c(C(=O)NCc2ccc(F)cc2)cc2cc(S(=O)(=O)N3CCCCC3)ccc21 -10.7%, COc1ccc(NC(=O)CSc2nc(-c3ccc(OC)cc3)cc(=O)[nH]2)cc1 3.45%, CCOC(=O)c1cc(S(=O)(=O)Nc2ccc(OC(F)(F)F)cc2)[nH]n1 -3.22%, COc1ccccc1NC(=O)c1oc2ccccc2c1NC(=O)c1ccc(S(=O)(=O)N(C)C)cc1 1.51%, Cc1ccc(-n2nc(C(=O)NCCc3cccc(C)c3)c3c4ccccc4n(C)c3c2=O)cc1 1.81%, COc1cc(-c2nc3n(n2)C(c2ccc(F)cc2)C(C(N)=O)=C(C)N3)cc(OC)c1OC (centres undefined) -8.93%, COc1ccc(OC)c(CNC(=O)c2cc(-c3ccc(Cl)s3)nc3ccccc23)c1 -0.94%, Cc1cccn2c(Nc3ccc4c(c3)OCCO4)c(-c3ccc(Br)o3)nc12 -4.25%, COc1ccc(-c2cc3ccc(O)c(CN4CCN(CCO)CC4)c3oc2=O)cc1OC 18.8%, CCN(C(=O)Cn1c(SCC(=O)NCc2ccccc2)nc2ccccc21)c1cccc(C)c1 11.1%, O=C(NCc1ccccc1Cl)c1cnc(N2CCCCC2)c2ccccc12 -22%, Cc1ccc(N2C(=O)c3oc4cc(C)c(C)cc4c(=O)c3C2c2cccc(O)c2)nc1 (centres undefined) -4.25%, CCCN(CCC)C(=O)c1c[nH]c2ccc(S(=O)(=O)Nc3cc(C)cc(C)c3)cc2c1=O 0.821%, Cc1ccc(CNC(=O)c2cc(C3CC3)nc3c2c(C)nn3-c2cccc(Cl)c2C)cc1 0.779%, COc1ccc(C(=O)N2CCCCC2CCN2CCOCC2)cc1 (centres undefined) -27.8%, Cc1ccc(-n2ncc(C(=O)NCc3ccc4c(c3)OCO4)c2C2CCN(C(=O)OC(C)(C)C)CC2)cc1C 16.9%, Cc1ccc(NCc2cccn2-c2nnc(N3CCC(C(=O)NCc4ccccc4C)CC3)s2)cc1 1.02%, COc1ccc(CN2CCCN(CC(=O)Nc3ccc(Br)cc3F)S2(=O)=O)cc1 4.28%, CC(C)c1cnn2c(NCc3ccccc3)cc(NCCCCCCN)nc12 -29.4%, Cc1c(Cl)cccc1NC(=O)c1cc(-c2cccs2)on1 -3.96%, CN(C(=O)CSc1nc2ccc(NC(=O)COc3ccc(F)cc3)cc2s1)c1ccccc1 -16%, Cc1cc(-c2ccc(S(=O)(=O)Nc3cccc(C(F)(F)F)c3)s2)on1 7.54%, CC(C)Sc1ncc(Cl)c(C(=O)Nc2nc3ccc(S(C)(=O)=O)cc3s2)n1 -7.84%, Cc1c(C(=O)N(C)C)sc2c1c(=O)n(-c1ccccc1C(F)(F)F)c(=O)n2Cc1ccccc1C#N 0.329%, Cc1ccc(-c2nc3cc(Cl)ccc3o2)cc1NC(=O)c1cc2ccccc2o1 -21.3%, COc1ccc(NC(=O)Cn2c(=O)n(Cc3nc(C)no3)c(=O)c3cc4c(cc32)OCO4)cc1 9.49%, COc1ccc(NC(=O)c2cc3c(=O)n(Cc4cccs4)ccc3nc2C)c(OC)c1 -8.55%, Cc1cc(C)c(NC(=O)C2CCN(C(=O)N3CC(C)Oc4ccc(Cl)cc43)CC2)c(C)c1 (centres undefined) 4.14%, COc1ccccc1CNC(=O)CCCn1c(=O)c2ccccc2n(CC(=O)Nc2ccc(C)cc2Cl)c1=O 17.2%, Cc1ccccc1Cn1c(=O)n(CC2CCC(C(=O)N3CCC(C)CC3)CC2)c(=O)c2sccc21 (centres undefined) -15.7%, CC(C)Cc1nn2c(=O)cc(COC(=O)c3cccc(NC(=O)c4cccs4)c3)nc2s1 -3.4%, COc1cccc(CNC(=O)CSc2cc(C)[nH]c(=O)n2)c1 36.8%, Cc1oc(-c2ccc(C(=O)NCCCOC(C)C)cc2)nc1CS(=O)(=O)c1ccccc1 6.07%, CC(=O)N1CCN(C(=O)C(=O)Nc2c3c(nn2-c2ccc(Cl)cc2)CSC3)CC1 0.531%, Cc1cccc(NC(=O)CSc2ncc3c(n2)-c2cc(Cl)ccc2N(C)S3(=O)=O)c1C 0.987%, CC(C)c1ccc(Nc2cc(C(=O)NCCCN(C)Cc3ccccc3)c3ccccc3n2)cc1 7.49%, O=C(COc1ccccc1)Nc1c(C(=O)N2CCN(c3ccc(F)cc3)CC2)oc2ccccc12 16.1%
